Reference: a compilation of properties of binary mixtures (doi:10.3866/pku.whxb202001015)
Some of these densities may be calculated back from excess volumes.

Assay: xn = mol fraction of the nth substance listed
Conditions: 293.15 K, 101.3 kPa

CC(=O)[O-].Cn1cc[nH+]c1 + O
Conditions	mass density [kg/m3]
x2 = 0	1156.1
x2 = 0.2845	1151.5
x2 = 0.4277	1147.3
x2 = 0.5098	1143.6
x2 = 0.6959	1127.8
x2 = 0.8691	1088.6
x2 = 0.9207	1064.6
x2 = 0.9425	1050.8
x2 = 0.9559	1041.1
x2 = 0.9677	1031.8
